For some of these results: At least one read-out could not be matched to a standard name with certainty. For some of these results: At least one structure is not confirmed: it was looked up by name or label, or the drawing left a doubt. Some entries share one result that the patent states for a list of compounds.
Legend:
luciferase (Luc) mRNA [1] = assay: Luc expression (total flux) after intramuscular administration; format: in vivo, mice; conditions: relative to MC3 formulation
Description: In order to monitor how effectively various nanoparticle compositions deliver therapeutic and/or prophylactics to targeted cells, different nanoparticle compositions including a particular therapeutic and/or prophylactic (for example, a modified or naturally occurring RNA such as an mRNA) are prepared and administered to rodent populations. Mice are intravenously, intramuscularly, intraarterially, or intratumorally administered a single dose including a nanoparticle composition with a formulation such as those provided in Example 3. In some instances, mice may be made to inhale doses. Dose sizes may range from 0.001 mg/kg to 10 mg/kg, where 10 mg/kg describes a dose including 10 mg of a therapeutic and/or prophylactic in a nanoparticle composition for each 1 kg of body mass of the mouse. A control composition including PBS may also be employed.
Sample formulations including both modified luciferase (Luc) mRNA and H10 mRNA were prepared and administered intramuscularly and the resulting expression and immunogenicity were evaluated simultaneously. Formulations including compounds according to Formula (I), (IA), (IB), (II), (IIa), (IIb), (IIc), (IId), (IIe), (IIf), (IIg), (III), (VI), (VI-a), (VII), (VIII), (VIIa), (VIIIa), (VIIIb), (VIIb-1), (VIIb-2), (VIIb-3), (VIIc), (VIId), (VIIIc), or (VIIId) were prepared and administered at doses of 0.001 and 0.01 mpk (e.g., doses of 0.0005 mpk of a formulation including Luc mRNA and a formulation including H10 mRNA or doses of 0.005 mpk of a formulation including Luc mRNA and a formulation including H10 mRNA).
Sample formulations including modified luciferase (Luc) mRNA prepared and administered intramuscularly and the resulting expression and immunogenicity were evaluated simultaneously. Formulations including compounds according to Formula (I), (IA), (IB), (II), (IIa), (IIb), (IIc), (IId), (IIe), (IIf), (IIg), (III), (VI), (VI-a), (VII), (VIII), (VIIa), (VIIIa), (VIIIb), (VIIb-1), (VIIb-2), (VIIb-3), (VIIc), (VIId), (VIIIc), or (VIIId) were prepared and administered at dose of and 0.01 mpk.

luciferase (Luc) mRNA [2] = assay: Luc expression in liver, lung, spleen and femur 6 hours after intravenous administration; format: in vivo; conditions: mice, i.v., 0.5 mpk, in words
How it was run: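 LNP-formulated mRNA given IV to mice (n=3) at 0.5 mpk; at 6 h, bioluminescence imaged ex vivo 15 min after IP D-luciferin (15 mg/mL, 200 μL), organs imaged within 25 min. Values are total flux by region of interest.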

luciferase mRNA = assay: Luciferase expression after subcutaneous administration to mice; format: in vivo, female CD-1 mice; conditions: relative to MC3
Description: (§1) The effect of the lipids of the disclosure on protein expression upon subcutaneous administration was studied. Formulations containing lipids of the disclosure and an mRNA expressing luciferase or hEPO were administered subcutaneously to female CD-1 mice at 0.5 mpk. Expression levels were obtained via whole body luminescent imaging (BLI) at 3, 6 and 24 hours after injection and expression levels in liver, spleen and at the injection site were evaluated ex vivo after 24 hours. […] See also Tables 35 and 36, and FIGS. 19 and 27.
Table 35 summarizes the luciferase expression levels using various nanoparticle compositions of the disclosure, and the luciferase expression levels using various nanoparticle compositions of the disclosure as compared to the luciferase expression level using an MC3 formulation after subcutaneous administration, as described above.

hEPO mRNA [3] = assay: hEPO expression after subcutaneous administration to mice; format: in vivo, female CD-1 mice
Description: as §1
Table 36 summarizes the hEPO expression levels using various nanoparticle compositions of the disclosure as compared to the hEPO expression level using a formulation containing MC3 or Compound 18, following subcutaneous administration, as described above.

[4] = Residual lipid levels in rat liver and spleen (UPLC-MS); format: in vivo; conditions: Sprague Dawley rats, 48 h post dose
Description: At 48 h liver tissue was harvested for lipid quantification. To pre-weighed tissues, Milli-Q water was added (900 μL water per 100 mg tissue). Tissues were homogenized using an Omni probe homogenizer until uniform. 50 μL of samples and matrix calibration standards were aliquoted into a 96-well plate. 50 μL of blank matrix for matrix blanks and control blanks were aliquoted. 400 μL is spiking solution were manually added to all samples except matrix blanks. 400 μL of 50:50 ACN:IPA were manually added to matrix blanks. The plate was covered and the samples vortexed and centrifuged for 5 minutes at >3000 rpm. 200 μL of the samples were transferred into a clean 96-well plate for analysis. Samples were analyzed on a Waters Acquity UPLC using a Higgins Analytical Clipeus C8 column ([…], 30×2.1 mm) and a gradient of either 70-95% or 60-95% (Mobile Phase A: 5 mM ammonium formate in 50:50:1 H2O:MeOH:formic acid; Mobile Phase B: 5 mM ammonium formate in 100:1 MeOH:formic acid) over 1.3 min at 1.2 mL/min (column temperature 55° C.). Detection was based on electrospray ionization (ESI) in positive mode using a Sciex API5500 Mass Spectrometer.
(§2) The expression of hEPO in rats intravenously administered a nanoparticle composition at a dose of 0.2 mpk or 2.0 mpk was measured at 6 hours. Table 16 summarize the ratio of hEPO expression levels using various nanoparticle compositions as compared to the hEPO expression level using MC3 formulation and the lipid levels in the liver measured 48 hours after administration, as described above. Tables 17 and 18 summarize the lipid levels in the liver and spleen measured 48 hours after administration of Compounds 28, 33, 53, and 54. Liver and spleen levels represent the average values calculated for 3 rats in each group. As is shown in Tables 17 and 18, less than 10% of Compounds 28, 33, 53, and 54 remained in the liver after 48 hours, while greater than 60% of MC3 remained.
005781 The expression of hEPO and lipid levels in the liver and spleen in rats intravenously administered a nanoparticle composition at a dose of 0.2 mpk was measured at various time points. Compounds 18 and 25 were selected for comparison with MC3. Lipids were formulated according to the standard MC3 formulation described above. Rats were administered intravenously a single 0.2 mpk dose and expression monitored at 0.25, 0.5, 1, 2, 4, 8, 24, and 48 hours after administration.

hEPO mRNA [5] = assay: hEPO expression after intramuscular administration to mice; format: in vivo; conditions: relative to MC3 formulation
Description: The expression of hEPO and cytokine induction in mice intravenously administered a nanoparticle composition at a dose of 0.5 mpk were measured at 3, 6, and 24 hours. […] The expression of hEPO in mice intramuscularly administered a nanoparticle composition from Table 1B at a dose of 0.01 mpk were measured at 3, 6, and 24 hours.
Blood collection and analysis for hEPO. Blood was collected from mice or rats via the tail vein and hEPO concentrations were determined using a hEPO ELISA assay.

luciferase (Luc) mRNA [6] = assay: Luc expression, whole body bioluminescence after intravenous administration to mice; format: in vivo; conditions: luciferase, intravenous, relative to MC3 formulation
How it was run: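 Bioluminescence, read as region-of-interest total flux at 3, 6 and 24 h, followed a single 0.5 mg/kg intravenous dose of Luc mRNA-loaded nanoparticles in mice (n=6). Luciferin substrate (200 μL, 15 mg/mL in PBS) was injected intraperitoneally into CD-1 mice 15 minutes ahead of each imaging point.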

hEPO mRNA [7] = assay: hEPO expression after intravenous administration to rats; format: in vivo, rat; conditions: Table 19B, relative to MC3
Description: The expression of hEPO and cytokine induction in rats intravenously administered a nanoparticle composition at a dose of 2.0 mpk was measured at 6 h.
as §2, with “As is shown in Tables 17 and 18, less than 10% of Compounds 28, 33, 53, and 54 remained in the liver after 48 hours, while greater than 60% of MC3 remained.” left out
The expression of hEPO induced by intravenous administration to rats of nanoparticle compositions at various doses was measured at 2, 4, 6, 8, 24, and 48 hour time points. FIGS. 3-6 respectively summarize the hEPO expression measured upon intravenous administration of formulations including Compounds 26, 18, 25, and MC3 to rat at various doses. […]
005781 The expression of hEPO and lipid levels in the liver and spleen in rats intravenously administered a nanoparticle composition at a dose of 0.2 mpk was measured at various time points. […]

hEPO mRNA [8] = assay: Pretreatment study in Cynomolgus monkeys (standard MC3 formulation, hEPO mRNA); format: in vivo; conditions: MC3 formulation once weekly for four weeks
Description: The effects of pretreatment to non-human primates were evaluated using a standard MC3 formulation including an mRNA encoding hEPO. Male monkeys were administered the nanoparticle composition once weekly for four weeks at a dose rate of 5 ml/kg/h and were pretreated with either methotrexate or dexamethasone.
As shown, in the absence of any pretreatment, maximal expression levels decreased nearly 70% over the course of the study.

Row | Compound | Novel lipid/MC3 expression ratio, 6 hr. time point, i.m. Luc (luciferase (Luc) mRNA [1]) | Flux in the liver (luciferase (Luc) mRNA [2]) | Novel lipid/MC3 expression ratio, 6 hr. time point, s.c. Luc 0.5 mpk (luciferase mRNA) | Novel lipid/MC3 expression ratio, 6 hr. time point, i.v. (luciferase (Luc) mRNA [6]) | Lipid/MC3 AUC (hEPO mRNA [7]) | also measured
1 | CCCCCCCCCOC(=O)CCCCCCCN(CCO)CCCCCCCC(=O)OC(CCCCCCCC)CCCCCCCC [Compound 18, Heptadecan-9-yl 8-((2-hydroxyethyl)(8-(nonyloxy)-8-oxooctyl)amino)octanoate] | 2.01 | comparable to that of MC3 formulations | 1.88 | 3.23 |  | hEPO expression Lipid/Compound 18 ratio, 6 hr. (hEPO mRNA [3]; 0.5 mpk, 6 hr.): 1; hEPO expression Lipid/Compound 18 ratio, AUC (hEPO mRNA [3]; 0.5 mpk, AUC): 1; Novel lipid/MC3 expression ratio, 6 hr. time point, s.c. hEPO 0.5 mpk (hEPO mRNA [3]; relative to MC3): 4.26; parent amino lipid levels in the liver [4]: < 1%; Novel lipid/MC3 expression ratio, 6 hr. time point, i.m. hEPO (hEPO mRNA [5]): 8.6
2 | CCCCCCCCCOC(=O)CCCCCCCNCCCCCCCC(=O)OC(CCCCCCCC)CCCCCCCC [Compound 237] |  |  |  |  | 2.21 | 
3 | CCCCCCCCCOC(=O)CCCCCCCN(CCO)CCCCCCC(C)OC(=O)C(CCCCCCCC)CCCCCCCC (stereo not shown) [Compound 234, 8-((2-Hydroxyethyl)(8-(nonyloxy)-8-oxooctyl)amino)octan-2-yl 2-octyldecanoate] |  |  |  |  | 2.79 | 
4 | CCCCCCCCCOC(=O)CCCCCCCN(CCO)CCCCCC(=O)OC(CCCCCCCC)CCCCCCCC [Compound 27, Nonyl 8-((6-(heptadecan-9-yloxy)-6-oxohexyl)(2-hydroxyethyl)amino) octanoate] | 3.94 | comparable to that of MC3 formulations | 4.87 | 0.31 |  | 
5 | C[C@@H]1C[C@H]2[C@@H]3CCC4=CC(=O)C=C[C@]4(C)[C@@]3(F)[C@@H](O)C[C@]2(C)[C@@]1(O)C(=O)CO [dexamethasone] |  |  |  |  |  | effect of pretreatment on hEPO protein expression (hEPO mRNA [8]): increased protein expression

Source: US12263248B2, “Compounds and compositions for intracellular delivery of therapeutic agents” (ModernaTX, Inc., priority 2018, dated 2025)
